# Some of the results follow.
# Target: T1, OsWOX13 (Oryza sativa, UniProt Q5QMM3 1-267)
# T1 sequence: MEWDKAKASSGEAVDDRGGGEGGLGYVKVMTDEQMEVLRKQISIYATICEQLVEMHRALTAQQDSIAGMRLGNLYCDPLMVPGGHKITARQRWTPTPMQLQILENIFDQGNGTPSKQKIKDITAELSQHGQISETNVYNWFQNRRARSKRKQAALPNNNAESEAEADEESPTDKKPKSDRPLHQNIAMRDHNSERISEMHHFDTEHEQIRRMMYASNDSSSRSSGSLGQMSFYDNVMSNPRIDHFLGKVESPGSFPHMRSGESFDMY
# Assay: protein-binding microarray (RPBM); PBS, 2% BSA, 51.3 ng/ul salmon testes DNA, 50 uM zinc acetate, 200 nM TF, 25 C, 1 h; high values mean tight binding
# Conditions: protein: recombinant; tags: N-terminal polyhistidine and DsRed monomer fusion (pET32a); label: CyDye5-dUTP incorporated in the synthesized complementary strand; 3' TTTTT single-stranded linker to array surface; dsDNA, one strand shown
# In short: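 The binding signal is fluorescence intensity per feature, in arbitrary units, read on an Axon 4000B scanner. Polyhistidine- and DsRed-tagged transcription factors (N-terminal fusions) from E. coli BL21-CodonPlus were purified on Ni–NTA and applied at 200 nM for 1 h at 25 °C to a double-stranded, BSA-blocked custom Agilent array in buffer with 50 µM zinc acetate.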
row,Sequence,binding signal
1,CAGATTAAACTGAATTATTACGAGATTGGCTTATGTGTGTCGGAGTCACCTAGTGCAG,30500 fluorescence intensity (a.u.)
2,CGCCCTAGATTGAGCCAACCTTTTAAAATCGTGTTAGAGCCGGAGTCACCTAGTGCAG,16700 fluorescence intensity (a.u.)
3,GAATCTAGATTGACTGGTTTCACCACAAGAAACCTATCCACGGAGTCACCTAGTGCAG,45700 fluorescence intensity (a.u.)
4,TAAACTGGCCGTAATTTAGCGTAGCTAAATTGTAAAACGCCGGAGTCACCTAGTGCAG,13200 fluorescence intensity (a.u.)
5,TACTGGTGCTTAATTGCATTGGCATTGTGCTGGCTCTATACGGAGTCACCTAGTGCAG,3150 fluorescence intensity (a.u.)
6,TAGAATAAATTGATTTAATTAAATGTAACATTAAATATATCGGAGTCACCTAGTGCAG,10100 fluorescence intensity (a.u.)
7,AGGTTCTCTTAAAATGTCAATCAAAGCATGGGCGACCTCCCGGAGTCACCTAGTGCAG,18700 fluorescence intensity (a.u.)
8,TGGGATAACACATGTATAATTAGGCCGACCGATCTACTTTCGGAGTCACCTAGTGCAG,3520 fluorescence intensity (a.u.)
9,GTTGACGACGATGACAATGATTAGTTGCCCAAAGGTTATACGGAGTCACCTAGTGCAG,14900 fluorescence intensity (a.u.)
10,TATGTTAAGATGATTGAAGCATATATCATGTCAGGGAAAGCGGAGTCACCTAGTGCAG,22600 fluorescence intensity (a.u.)
11,CTAAAATTAGAACCATGCCAATTTAATCACATTTTCCGTCCGGAGTCACCTAGTGCAG,10400 fluorescence intensity (a.u.)
12,AATGATTGAAGGATATCCATTTGAATGATGGTATGCTTTACGGAGTCACCTAGTGCAG,43000 fluorescence intensity (a.u.)
13,GTTAATATATTGAGCAAATTATTCAGTACATCACAGCTCTCGGAGTCACCTAGTGCAG,7160 fluorescence intensity (a.u.)
14,GGAGATGATGATTTACCTGTGATCTGTTTGGTCCTTGAGCCGGAGTCACCTAGTGCAG,19400 fluorescence intensity (a.u.)
15,ATCAAATTCCAATTCCAATTCCATTTTCTCGATCAAACACCGGAGTCACCTAGTGCAG,3850 fluorescence intensity (a.u.)
16,AGTAATTGCTAATTGCTACTGCTAACTGGGGATTATCTCTCGGAGTCACCTAGTGCAG,32300 fluorescence intensity (a.u.)
17,ATGATCAATCAGTAGATTATGCCCTGGTTATTCTTTATAACGGAGTCACCTAGTGCAG,25400 fluorescence intensity (a.u.)
18,ATTATATAAATGAGCTATTAGATTGCCTATAGATGGATTACGGAGTCACCTAGTGCAG,3900 fluorescence intensity (a.u.)
19,AGCAACTTAGGTTAATTTTAATTAGGTGTCATTTAGTTTTCGGAGTCACCTAGTGCAG,4900 fluorescence intensity (a.u.)
20,TTTTGATAATATATTTGACATGCAAGAATGCCTTTTACGTCGGAGTCACCTAGTGCAG,4830 fluorescence intensity (a.u.)
21,CATAATTGTTTTCTGAGTAAATTTCACAAACTGCAATTGTCGGAGTCACCTAGTGCAG,42100 fluorescence intensity (a.u.)
22,AATTAAGATATGATTAGGACTTTATGTAACAGAGGGAGCCCGGAGTCACCTAGTGCAG,15000 fluorescence intensity (a.u.)
23,GTATCAATTATCAAACTTACCGAGGGTGGTGGCTGGTGCGCGGAGTCACCTAGTGCAG,18600 fluorescence intensity (a.u.)
24,ACCCACTGATGGCAACTGTTAAACTAGCTCCAATTGTTTTCGGAGTCACCTAGTGCAG,3200 fluorescence intensity (a.u.)
25,ACAGTGATTTGTATCTTTGTCAGCACTATACATGAAAATACGGAGTCACCTAGTGCAG,11700 fluorescence intensity (a.u.)
26,TTTAATTGTAACAAATATAACGAAATAATCAGATCCTTGACGGAGTCACCTAGTGCAG,28800 fluorescence intensity (a.u.)
27,ACACATGATTTGCATGCCAACCTTATTTCTCCTTCACTTTCGGAGTCACCTAGTGCAG,16500 fluorescence intensity (a.u.)

row,Sequence,binding signal
1,AGTGGGAGTCAATCATGCGAGTTCACGTGCATCGCTGAGACGGAGTCACCTAGTGCAG,9570 fluorescence intensity (a.u.)
2,GTCATAAATTTATGCGGATTGGTGATGACTTGGTGTTTCACGGAGTCACCTAGTGCAG,39000 fluorescence intensity (a.u.)
3,CATGACCTGCAAATTAACTCAAAATTTCTCCCTCTTAAACCGGAGTCACCTAGTGCAG,4130 fluorescence intensity (a.u.)
4,AAACAGATTGAGTATGAGTCCCGTCGGAATGGGATACGTTCGGAGTCACCTAGTGCAG,12300 fluorescence intensity (a.u.)
5,TTTCGTTAATTTTAAAATATATTGTGCAGTCTTTTGAGATCGGAGTCACCTAGTGCAG,20500 fluorescence intensity (a.u.)
6,GACTTTAATGATGCTGACACCGGCTTAATTAGTATTGCGGCGGAGTCACCTAGTGCAG,8560 fluorescence intensity (a.u.)
7,TCTCCGTCCCCATCACCCTCGCAATTACTCCACCCGCCGGCGGAGTCACCTAGTGCAG,5550 fluorescence intensity (a.u.)
8,ACTTAAATGTAATTACAGTGTAACTTACATGTAACTACAGCGGAGTCACCTAGTGCAG,30000 fluorescence intensity (a.u.)
9,AATTTATTAAGCCTAATTAATCCATCATTAGTAAATGTTTCGGAGTCACCTAGTGCAG,5410 fluorescence intensity (a.u.)
10,CGTGATTGGTGGCATACATACGCTTCTTCTAGAGACAAGACGGAGTCACCTAGTGCAG,37700 fluorescence intensity (a.u.)
11,GGTTTTAATAGATGGAGGTGTCGATATACCCAGTTTTGTGCGGAGTCACCTAGTGCAG,8390 fluorescence intensity (a.u.)
12,CTCTGATCAAACTGACATGCATGGCACTAATTTTAGTTGACGGAGTCACCTAGTGCAG,11500 fluorescence intensity (a.u.)
13,TGTATTAATTGTGTAGTATATGTTTAAAGGTAATTATTGTCGGAGTCACCTAGTGCAG,20400 fluorescence intensity (a.u.)
14,TTTACAAACACGCAAATTAAAATTTTATTTATACAATTAACGGAGTCACCTAGTGCAG,4180 fluorescence intensity (a.u.)
15,ATTCAATTTGCACTAATTTTGATAGTCAGGGAATACCCAACGGAGTCACCTAGTGCAG,21100 fluorescence intensity (a.u.)
16,TTTGAGCCTAATTAATCCGTCATTAGCACATGTGGGTTACCGGAGTCACCTAGTGCAG,7450 fluorescence intensity (a.u.)
17,GTCAAATCATGGCGCAATTAATCTTAAAAGATTTGTCTCGCGGAGTCACCTAGTGCAG,23900 fluorescence intensity (a.u.)
18,ATGGTCTTAATCAATTGATATTTATAGAAGGTTTCTTTGACGGAGTCACCTAGTGCAG,15300 fluorescence intensity (a.u.)
19,CCGTTGATCCAAAACTGATTTAACTCGATCTCACCATACACGGAGTCACCTAGTGCAG,9590 fluorescence intensity (a.u.)
20,ATACTAAATTATTAATATCTAACCCACGAGTCCGTGATACCGGAGTCACCTAGTGCAG,10800 fluorescence intensity (a.u.)
21,ACAAACATCAATCTAAATTTACGTTTTCTTAGTTGAAATACGGAGTCACCTAGTGCAG,14300 fluorescence intensity (a.u.)
22,AATTAATCACTTGATGCAACCCTAATCAACTAACTTTAACCGGAGTCACCTAGTGCAG,6590 fluorescence intensity (a.u.)
23,TGCAAACAATGATTTAGATGGTTGGTATAACCATATGTGACGGAGTCACCTAGTGCAG,3770 fluorescence intensity (a.u.)
24,ATGATGATGGGAATACCAAAAGGATTACAATGCGTCTGCCCGGAGTCACCTAGTGCAG,17100 fluorescence intensity (a.u.)
25,TTGTAGATTTATACCTGTCCTAATCAGAGTATACTGTATTCGGAGTCACCTAGTGCAG,3990 fluorescence intensity (a.u.)
26,GATAAATTAAAGTTTTACGTTGGAGACTATGTATGCACCACGGAGTCACCTAGTGCAG,8700 fluorescence intensity (a.u.)
27,GTCAACGGAGTAGAAATTATTAATTGAGAAAATTGTGCGCCGGAGTCACCTAGTGCAG,8230 fluorescence intensity (a.u.)
